Variants at the floor of the assay are shown more often than the library holds them. Some results are limits rather than exact numbers.

B1: TPR 5TU (parent)
chain: GGAUCUUCUCGAUCUAACAAAAAAGACAAAUCUGCCACAAAGCUUGAGAGCAUCUUCGGAUGCAGAGGCGGCAGCCUUCGGUGGCGCGAUAGCGCCAACGUUCUCAACUAUGACACGCAAAACGCGUGCUCCGUUGAAUGGAGUUUAUCAUG

In this data set the parent is B1. The data set can be described thus: polymerase ribozyme fitness, log enrichment relative to wild type (log ratio); higher = more active; in vitro selection for triplet polymerase activity. The method in brief: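 Each subunit of a heterodimeric triplet polymerase ribozyme was mutagenized into a library by PCR, transcribed, and subjected to one round of in vitro selection, run in triplicate. Libraries were annealed with a biotinylated primer, the partner subunit and triplets, incubated frozen at −7 °C, and extended constructs were gel-excised, captured on streptavidin beads and recovered by RT-PCR. Input and output libraries were sequenced on Illumina, keeping genotypes with ≥10 input reads and ≥1 read per output. Fitness is log base 2 of genotype enrichment divided by wild-type enrichment, from inverse-variance-weighted replicate averages.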
In the case of C35G G68U U148C, the “polymerase ribozyme fitness (log ratio)” value was not above -4.2.
As to C35G G62C G67C C85G C131A A147U, the “polymerase ribozyme fitness (log ratio)” value is not above -4.2.
Under C35U U61C C72A G141U stands not above -4.2; under A37C A49C C54A U78G C93U G124A, not above -4.2; under C36G U56A G94U A97C A120U C125U, not above -4.2.
With C36U U45G C57U G92C A122G, the “polymerase ribozyme fitness (log ratio)” value is not above -4.2.
To C36U C87U C93G A98U A147U U148C belongs not above -4.2; to C36A U55A U61A C79G G81C A137G, not above -4.2; to C35G A66G G74A G83C U134G, not above -4.2.
On to C35G A47C C69G U77G U82C C103G G128U U130G U151C, for which the “polymerase ribozyme fitness (log ratio)” value is not above -4.2.
To C36G A37G G80A G86U C95A belongs not above -4.2.
Turning to C36G C95A U104G C114U A142U, the “polymerase ribozyme fitness (log ratio)” value is not above -4.2.
Under C36G G94U C118G A147U stands not above -4.2; under C35A C95G, -4.1.
For the variant C36U A52U C75G G88C C105A C114G A115G, the “polymerase ribozyme fitness (log ratio)” value is not above -4.2.
Consider C35G A47C U139G, for which the “polymerase ribozyme fitness (log ratio)” value is not above -4.2.
To G34C A47U G59U C87U C99A C105A G126U belongs not above -4.2; to C35U C51U U55C C85A U101C C103A U144A, not above -4.2.
To A37C A97U belongs -0.373; to C36A A37C G84A C85G U101G, not above -4.2; to C35U C75G C93U A115U A120U A122G, not above -4.2.
Under G34U U56A C75G U134G stands not above -4.2; under A37G A39G C93G A120C G140A, not above -4.2.
Regarding C35U U53A C99U C105U A106C A115C, the “polymerase ribozyme fitness (log ratio)” value is not above -4.2.
In the case of A37C C105U A107G G141C, the “polymerase ribozyme fitness (log ratio)” value is not above -4.2.
Take C35A C69G G88C C93A C96U U109G A119C: the “polymerase ribozyme fitness (log ratio)” value is not above -4.2.
Under G34U U53A C54G C57U C85G G100C U104A A119U C125A A138G stands not above -4.2; under C36U C76G A89U C96U, not above -4.2; under A37C G58C U90G U151A, not above -4.2.
For the variant C36A G74A A107C C116A, the “polymerase ribozyme fitness (log ratio)” value was not above -4.2.
On to G34U A60U A91G G94U A142C, for which the “polymerase ribozyme fitness (log ratio)” value was not above -4.2.
Under C35U A49C C79A C87A A119U stands not above -4.2; under A37C C95U G141C, -1.7.
To C35U A37U G92C A106U C116G G141U belongs not above -4.2; to C36U C63U G84U C103U C105U A147G A150G, not above -4.2.
Turning to A37C C95G, the “polymerase ribozyme fitness (log ratio)” value is -2.69.
Under U33G G92A stands not above -4.2.
To A37C U77C G92A C96A U139C belongs not above -4.2.
To C36U A64C G86C C105A C118U A119U belongs not above -4.2; to C35A U55A C108A U134A U145A, not above -4.2.
Turning to G34A C43U C69G C87U G100A C118U, the “polymerase ribozyme fitness (log ratio)” value is not above -4.2.
Turning to G34C C36U U111C A119G, the “polymerase ribozyme fitness (log ratio)” value is not above -4.2.
In the case of C36U G58A C79U C123U G141C, the “polymerase ribozyme fitness (log ratio)” value is not above -4.2.
To A37C A60U C93A U144C belongs not above -4.2; to C36A A73U G92U U134G G143U, -4.13.
For G34U C51A C93U, the “polymerase ribozyme fitness (log ratio)” value is not above -4.2.
Regarding C36A U56A, the “polymerase ribozyme fitness (log ratio)” value was -3.62.
To C35U A52C G81A G86U C95A belongs not above -4.2; to C35U A47C U56G A64U A106U G133U, not above -4.2; to C36A U45A G92C, not above -4.2.
Under C36A U78A stands not above -4.2.
With U33G G84A C85U A106G A107G, the “polymerase ribozyme fitness (log ratio)” value is not above -4.2.
For C35U G50C C76A A89G A91G U109A A137C G143U, the “polymerase ribozyme fitness (log ratio)” value was not above -4.2.
As to G34C U61G A64G C93U C95G G112U, the “polymerase ribozyme fitness (log ratio)” value is not above -4.2.
To C35U U56A C76A G83U C93G G136A G152C belongs not above -4.2; to C35U U55A G84U A147C, -2.79; to A37C G94C C105A U139C A150C, not above -4.2.
Under C35G G88A C105G A138G stands not above -4.2; under C36A G48U C96G, not above -4.2; under C35G A60G C75U C87A G92U A121G A150G, not above -4.2.
G34U G80C A107C A138G: the “polymerase ribozyme fitness (log ratio)” value was not above -4.2.
As to A37C U56G C57U G68U C75G G84A C129G, the “polymerase ribozyme fitness (log ratio)” value was not above -4.2.
For the variant C36A U55G C57A C69G A106C G133C, the “polymerase ribozyme fitness (log ratio)” value was not above -4.2.
To C35U G74A G86A C96G C114A A150C belongs not above -4.2.
In the case of A37C C85U G88C A137U, the “polymerase ribozyme fitness (log ratio)” value was not above -4.2.
To A37C U55A C96U A113U A137U belongs -4.18; to C35G G83U A150G, not above -4.2; to C35A A47C G48C U56A G94C C96A G100A, not above -4.2.
Under A37G A39C C87A C116U G136A stands not above -4.2.
Under G34A G59C G71U G84U C116G A150U stands not above -4.2.
With A37C G48A C51U G86C G88A, the “polymerase ribozyme fitness (log ratio)” value was not above -4.2.
Consider C35G A49G C85A G94C G100U C108A, for which the “polymerase ribozyme fitness (log ratio)” value was not above -4.2.
For C36U U61A G62A C63A A121G, the “polymerase ribozyme fitness (log ratio)” value was not above -4.2.
As to G34C U55G C69U U78A A91U C93U G141A, the “polymerase ribozyme fitness (log ratio)” value was not above -4.2.
Under C36A A66G A91U A107C C116A A150G stands not above -4.2.
To G34A G80C U109C A110G U135A U151G belongs not above -4.2; to G34U A41U G68C G83C C87G A97U A122U G124C U139G U151G, not above -4.2; to A37C G58A U78G U90C G126A U145A, not above -4.2.
In the case of C36A U78G A89C U102G U111A, the “polymerase ribozyme fitness (log ratio)” value is not above -4.2.
For C36U U145A G152A, the “polymerase ribozyme fitness (log ratio)” value was -3.
On to G34C U61A C93G A137G, for which the “polymerase ribozyme fitness (log ratio)” value was not above -4.2.
To G34U G42A U56A G86A belongs not above -4.2; to A37G A39U G58C G62A C63U A64U U77A C87G C103G A150U, not above -4.2.
For the variant C35G A60U G86C G143U, the “polymerase ribozyme fitness (log ratio)” value was not above -4.2.
